Measured values as given in paper doi:10.1101/2023.12.29.573648 (bioRxiv, 2023).

Target: T1, 10xHis-CAPRIN1 (recombinant human CAPRIN1 from insect cells) (human, UniProt Q14444 1-709)
T1 sequence (looked up): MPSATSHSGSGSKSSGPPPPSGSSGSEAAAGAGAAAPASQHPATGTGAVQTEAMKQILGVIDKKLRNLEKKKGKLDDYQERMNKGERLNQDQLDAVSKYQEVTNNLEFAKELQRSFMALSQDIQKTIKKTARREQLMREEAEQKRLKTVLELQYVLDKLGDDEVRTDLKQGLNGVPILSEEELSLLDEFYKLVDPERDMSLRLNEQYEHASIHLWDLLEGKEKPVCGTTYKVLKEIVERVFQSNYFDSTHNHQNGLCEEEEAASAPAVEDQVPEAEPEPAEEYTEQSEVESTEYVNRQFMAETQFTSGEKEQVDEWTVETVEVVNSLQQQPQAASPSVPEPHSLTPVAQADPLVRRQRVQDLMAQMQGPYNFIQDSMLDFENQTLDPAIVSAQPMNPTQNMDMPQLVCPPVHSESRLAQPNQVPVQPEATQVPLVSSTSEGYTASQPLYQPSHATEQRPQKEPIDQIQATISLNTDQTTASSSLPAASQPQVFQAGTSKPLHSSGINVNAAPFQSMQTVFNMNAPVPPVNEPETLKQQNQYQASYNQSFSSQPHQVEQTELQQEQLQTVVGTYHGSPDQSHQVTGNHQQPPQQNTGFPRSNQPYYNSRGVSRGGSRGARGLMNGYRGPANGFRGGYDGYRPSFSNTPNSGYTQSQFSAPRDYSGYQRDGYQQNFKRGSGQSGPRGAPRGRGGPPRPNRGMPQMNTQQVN
Assay: SPR

B1: 10xHis-MBP-APP695 (recombinant full-length human APP695 from insect cells) (natural protein)
chain: LEVPTDGNAGLLAEPQIAMFCGRLNMHMNV[skipping about 40 residues]ANQPVTIQNWCKRGRKQCKTHPHFVIPYRCLVGEFVSDALLVPDKCKFLHQERMDVCETHLHWHTVAKETCSEKSTNLHDYGMLLPCGIDKFRGVEFVCCPLAEESDNVDSADAEEDDSDVWWGGADTDYADGSEDKVVEVAEEEEVAEVEEEEADDDEDDEDGDEVEEEAEEPYEEATERTTSIATTTTTTTESVEEVVRVPTTAASTPDAVDKYLETPGDENEHAHFQKAKERLEAKHRERMSQVMREWEEAERQAKNLPKADKKAVIQHFQEKVESLEQEAANERQQLVETHMARVEAMLNDRRRLALENYITALQAVPPRPRHVFNMLKKYVRAEQKDRQHTLKHFEHVRMVDPKKAAQIRSQVMTHLRVIYERMNQSLSLLYNVPAVAEEIQDEVDELLQKEQNYSDDVLANMISEPRISYGNDALMPSLTETKTTVELLPVNGEFSLDDLQPWHSFGADSVPANTENEVEPVDARPAADRGLTTRPGSGLTNIKTEEISEVKM[skipping about 100 residues]
fold decrease of koff with 0152 against no compound: 10 fold | fold increase of kon with 0152 against no compound: 3.5 fold | fold reduction of KD with 0152 against no compound: 36 fold
